Results from the antibiotic and cytotoxicity screens of Wong et al. (2023).
This is one part of the list.

What follows are compounds tested on HSkMC (human skeletal muscle cells) (assay: cytotoxicity call (relative viability < 0.9)). Conditions: 10 µM.

Row | Compound | cytotoxicity call
1 | CCc1ccc(NC(=O)Cc2coc3ccc(C(C)C)cc23)cc1 | inactive
2 | C[C@@H]1CN([C@@H](C)CO)C(=O)c2cc(NS(=O)(=O)c3cn(C)cn3)ccc2O[C@@H](C)CCCCO[C@@H]1CN(C)C(=O)CCCN(C)C | inactive
3 | N[C@H](CC(=O)O)C(=O)O | inactive
4 | C[C@@H]1CCCCO[C@@H](CN(C)C(=O)Nc2ccccc2)[C@H](C)CN([C@@H](C)CO)C(=O)c2cc(NC(=O)C3CCCCC3)ccc2O1 | inactive
5 | COc1ccc(S(=O)(=O)Nc2ccc3c(c2)C(=O)N([C@H](C)CO)C[C@@H](C)[C@@H](CN(C)C(=O)NC2CCCCC2)OCCCC[C@H](C)O3)cc1 | inactive
6 | C[C@H](CS)C(=O)N1CCC[C@H]1C(=O)O | inactive
7 | C[C@H]1CN([C@@H](C)CO)C(=O)c2cccc(NS(=O)(=O)c3ccc(F)cc3)c2O[C@H]1CN(C)CC1CC1 | inactive
8 | Cc1noc(C)c1S(=O)(=O)Nc1ccc2c(c1)CC(=O)N([C@@H](C)CO)C[C@@H](C)[C@@H](CN(C)Cc1ccc(C(=O)O)cc1)O2 | inactive

What follows are compounds tested on HepG2 (assay: cytotoxicity call (relative viability < 0.9)). Conditions: 10 µM.

Row | Compound | cytotoxicity call
9 | COc1cccc(S(=O)(=O)N(C)C[C@@H]2Oc3ncc(-c4cccc(C(=O)N(C)C)c4)cc3C(=O)N([C@@H](C)CO)C[C@H]2C)c1 | inactive
10 | CC(C)NC(=O)Nc1ccc2c(c1)C(=O)N([C@@H](C)CO)C[C@H](C)[C@@H](CN(C)C(=O)Nc1ccc3c(c1)OCO3)O2 | inactive
11 | C[C@H](CO)N1C[C@H](C)[C@@H](CN(C)S(=O)(=O)c2ccc(Cl)cc2)OCc2cnnn2CCCC1=O | inactive
12 | C#CC1(O)CCC2C3CCC4=C(CCC(=O)C4)C3CCC21C (stereo not drawn) | inactive
13 | CC(=O)NS(=O)(=O)c1ccc(N)cc1 | active
14 | N#CCON1C(=O)c2ccccc2C1=O | inactive
15 | C[C@H]1CN([C@@H](C)CO)C(=O)c2cc(C#CCN(C)C)cnc2O[C@@H]1CN(C)C(=O)CN1CCOCC1 | inactive
16 | C[C@@H]1CCCCO[C@@H](CN(C)C(=O)c2ccncc2)[C@H](C)CN([C@@H](C)CO)C(=O)c2cc(NS(C)(=O)=O)ccc2O1 | inactive
17 | O=C(C[C@H]1C[C@H]2c3cc(NC(=O)NC4CCCC4)ccc3O[C@H]2[C@@H](CO)O1)NCc1ccc(-c2ccccc2)cc1 | inactive
18 | CC[C@@H](C)NC(=O)C1CCNCC1 | inactive
19 | COc1ccc2cc1Oc1ccc(cc1)CC1c3cc(c(OC)cc3CCN1C)Oc1c(OC)c(OC)cc3c1C(C2)N(C)CC3 (stereo not drawn) | inactive
20 | C[C@@H]1CN([C@H](C)CO)C(=O)Cc2cc(NC(=O)Cn3cnnn3)ccc2O[C@@H]1CN(C)C(=O)Nc1ccccc1 | inactive
21 | O=C(O)CCn1ccnc1 | inactive
22 | CC(C)NC(=O)Nc1ccc2c(c1)CC(=O)N([C@@H](C)CO)C[C@@H](C)[C@@H](CN(C)C(=O)Nc1ccc3c(c1)OCO3)O2 | inactive
23 | O=C(C[C@@H]1C=C[C@H](NC(=O)c2ccc(F)cc2)[C@H](CO)O1)NCc1ccncn1 | inactive
24 | C[C@H]1CN([C@@H](C)CO)C(=O)c2cccc(NC(=O)Nc3ccc(C(F)(F)F)cc3)c2O[C@@H]1CN(C)Cc1ccc2c(c1)OCO2 | inactive
25 | C[C@H](CO)N1C[C@H](C)[C@@H](CN(C)C(=O)Nc2ccc(C(F)(F)F)cc2)OCCCC[C@H](C)Oc2ccc(NS(=O)(=O)c3cn(C)cn3)cc2C1=O | inactive
26 | C[C@@H]1CN([C@@H](C)CO)C(=O)c2cccc(NC(=O)c3nc4ccccc4s3)c2O[C@H]1CN(C)Cc1ccc(-c2ccccc2)cc1 | inactive
27 | Cn1cnc(S(=O)(=O)N2C[C@@H](O)COC[C@@H]3O[C@H](CC(=O)NC4Cc5ccccc5C4)CC[C@H]32)c1 | inactive
28 | Cc1cccc(-c2ccc3c(c2)O[C@H](CN(C)Cc2ccc(C(=O)O)cc2)CCN(C(C)C)S3(=O)=O)c1 | inactive

Row | Compound | cytotoxicity call
29 | C[C@@H]1CN([C@H](C)CO)C(=O)c2cc(NS(=O)(=O)c3ccccc3)ccc2O[C@@H](C)CCCCO[C@@H]1CN(C)Cc1ccc(Cl)c(Cl)c1 | active
30 | CCS(=O)(=O)Nc1ccc2c(c1)C(=O)N(C)[C@@H]1CC[C@H](CC(=O)NCc3ccccc3F)O[C@H]1CO2 | inactive
31 | C[C@@H]1CCCCO[C@H](CN(C)Cc2ccc(C(=O)O)cc2)[C@H](C)CN([C@@H](C)CO)C(=O)c2cc(NS(=O)(=O)c3cccs3)ccc2O1 | inactive
32 | CS(=O)(=O)NC[C@@]12COC[C@H]1CN(C(=O)c1cnccn1)C2 | inactive
33 | C[C@H](CO)N1C[C@H](C)[C@H](CN(C)S(=O)(=O)c2ccc(F)cc2)Oc2c(NC(=O)Nc3cccc4ccccc34)cccc2C1=O | inactive
34 | O=C(CCCCCNC(=O)OCCCCO[C@@H]1C[C@H](c2ccc(C(F)(F)F)cc2)C=C(C(=O)N2CCN(Cc3ccc4c(c3)OCO4)CC2)O1)NO | inactive
35 | C[C@H]1CN([C@@H](C)CO)C(=O)c2cc(NC(=O)Nc3ccc(C(F)(F)F)cc3)ccc2O[C@H]1CN(C)C(=O)Nc1ccc(F)cc1 | inactive
36 | CCCNc1ncnc(N)c1[N+](=O)[O-] | inactive
37 | Cc1noc(C)c1NC(=O)Nc1cccc2c1O[C@@H](CN(C)S(=O)(=O)c1cn(C)cn1)[C@H](C)CN([C@@H](C)CO)C2=O | inactive
38 | C[C@H]1CN([C@@H](C)CO)C(=O)c2cc(NC(=O)C3CCCCC3)ccc2O[C@H]1CN(C)Cc1ccc(C(=O)Nc2ccccc2N)cc1 | inactive
39 | CC(=O)N(C)C[C@@H]1Oc2ncc(C#CC(C)(C)O)cc2C(=O)N([C@H](C)CO)C[C@H]1C | inactive
40 | COCCOC(=O)N1C(=O)[C@@]2(c3ccccc31)[C@H](C(=O)N1CCc3cc(OC)c(OC)cc3C1)[C@H]1C(=O)O[C@H](c3ccccc3)[C@H](c3ccccc3)N1[C@@H]2c1ccc(O)cc1 | inactive
41 | CCc1ccc(NC(=O)Cc2coc3ccc(C(C)C)cc23)cc1 | inactive
42 | C[C@@H]1CN([C@@H](C)CO)C(=O)c2cc(NS(=O)(=O)c3cn(C)cn3)ccc2O[C@@H](C)CCCCO[C@@H]1CN(C)C(=O)CCCN(C)C | inactive
43 | N[C@H](CC(=O)O)C(=O)O | inactive
44 | C[C@@H]1CCCCO[C@@H](CN(C)C(=O)Nc2ccccc2)[C@H](C)CN([C@@H](C)CO)C(=O)c2cc(NC(=O)C3CCCCC3)ccc2O1 | inactive
45 | COc1ccc(S(=O)(=O)Nc2ccc3c(c2)C(=O)N([C@H](C)CO)C[C@@H](C)[C@@H](CN(C)C(=O)NC2CCCCC2)OCCCC[C@H](C)O3)cc1 | inactive
46 | C[C@H](CS)C(=O)N1CCC[C@H]1C(=O)O | inactive
47 | C[C@H]1CN([C@@H](C)CO)C(=O)c2cccc(NS(=O)(=O)c3ccc(F)cc3)c2O[C@H]1CN(C)CC1CC1 | inactive
48 | Cc1noc(C)c1S(=O)(=O)Nc1ccc2c(c1)CC(=O)N([C@@H](C)CO)C[C@@H](C)[C@@H](CN(C)Cc1ccc(C(=O)O)cc1)O2 | inactive
